{"sequences": {"note": "The chains behind the UniProt entries cited, without tags or fusion partners. Where a name states a change or a piece, a line headed by the entry shows the natural chain unless it says otherwise. A line that says so, or that is headed by a name, gives the form on record, which may keep a tag or linker. Residues count along the entry.", "UniProt P05106, residues 27-788": "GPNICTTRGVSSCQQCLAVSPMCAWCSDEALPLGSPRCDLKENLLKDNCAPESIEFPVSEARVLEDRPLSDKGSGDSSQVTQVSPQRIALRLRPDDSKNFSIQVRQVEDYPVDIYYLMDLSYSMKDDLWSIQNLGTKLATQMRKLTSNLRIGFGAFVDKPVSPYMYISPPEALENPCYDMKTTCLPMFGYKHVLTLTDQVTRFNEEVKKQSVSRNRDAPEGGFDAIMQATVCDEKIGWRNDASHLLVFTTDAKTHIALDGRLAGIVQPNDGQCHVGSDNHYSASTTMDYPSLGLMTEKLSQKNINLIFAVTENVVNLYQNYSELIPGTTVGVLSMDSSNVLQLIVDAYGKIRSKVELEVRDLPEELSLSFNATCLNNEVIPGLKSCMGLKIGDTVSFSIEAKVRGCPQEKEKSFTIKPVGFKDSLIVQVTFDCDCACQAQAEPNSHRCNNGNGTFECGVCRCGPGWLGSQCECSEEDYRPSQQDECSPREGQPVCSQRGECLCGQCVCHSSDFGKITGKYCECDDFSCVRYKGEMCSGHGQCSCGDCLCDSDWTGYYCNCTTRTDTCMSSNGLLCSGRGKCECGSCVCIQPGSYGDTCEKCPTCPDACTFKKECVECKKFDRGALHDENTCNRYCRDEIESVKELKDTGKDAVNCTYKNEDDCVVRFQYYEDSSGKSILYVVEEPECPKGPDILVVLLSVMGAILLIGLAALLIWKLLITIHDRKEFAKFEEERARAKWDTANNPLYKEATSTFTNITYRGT", "GST-SERPINA1 (P01009, residues 25-418)": "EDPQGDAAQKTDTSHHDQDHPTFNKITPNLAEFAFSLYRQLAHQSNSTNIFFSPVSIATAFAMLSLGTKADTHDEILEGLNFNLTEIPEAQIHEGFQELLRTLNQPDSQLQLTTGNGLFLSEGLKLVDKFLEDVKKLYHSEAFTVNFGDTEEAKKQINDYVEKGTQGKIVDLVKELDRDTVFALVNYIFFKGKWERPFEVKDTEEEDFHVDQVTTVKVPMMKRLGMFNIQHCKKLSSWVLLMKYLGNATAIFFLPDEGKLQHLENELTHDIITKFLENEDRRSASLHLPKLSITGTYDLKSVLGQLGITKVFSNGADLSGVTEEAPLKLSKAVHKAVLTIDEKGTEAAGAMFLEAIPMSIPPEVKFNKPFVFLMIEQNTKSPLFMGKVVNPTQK", "SERPINA1 Δ320–392 (P01009, form named)": "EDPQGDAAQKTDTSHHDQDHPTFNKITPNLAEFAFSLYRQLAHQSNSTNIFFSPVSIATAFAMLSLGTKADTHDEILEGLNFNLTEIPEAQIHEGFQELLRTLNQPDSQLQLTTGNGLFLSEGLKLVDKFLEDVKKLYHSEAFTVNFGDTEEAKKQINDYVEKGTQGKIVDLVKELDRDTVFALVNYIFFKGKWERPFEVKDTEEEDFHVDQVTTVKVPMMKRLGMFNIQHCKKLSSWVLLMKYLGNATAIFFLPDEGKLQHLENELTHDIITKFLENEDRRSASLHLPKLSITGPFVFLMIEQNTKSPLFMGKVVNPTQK", "SERPINA1 Δ60–120 (P01009, form named)": "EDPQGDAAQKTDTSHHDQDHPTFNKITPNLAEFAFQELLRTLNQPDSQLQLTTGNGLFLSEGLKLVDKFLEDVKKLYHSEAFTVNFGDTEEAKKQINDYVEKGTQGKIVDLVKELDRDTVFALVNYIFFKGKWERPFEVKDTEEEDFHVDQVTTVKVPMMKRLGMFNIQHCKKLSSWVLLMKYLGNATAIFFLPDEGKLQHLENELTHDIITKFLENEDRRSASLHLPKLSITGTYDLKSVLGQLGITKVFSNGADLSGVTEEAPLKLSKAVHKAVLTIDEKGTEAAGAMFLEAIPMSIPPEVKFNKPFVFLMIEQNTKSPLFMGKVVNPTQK"}, "source": "paper PMC12753576", "key": {"[1]": {"biological_target": "ITGB3-3×FLAG (wild type) (human) (UniProt P05106)", "assay": "co-IP; HCC cell lines co-transfected with wild-type or mutant SERPINA1 and ITGB3 plasmids for 48 h; immunoprecipitation with HA- or FLAG-tag antibodies"}, "[2]": {"biological_target": "ITGB3-3×FLAG (wild type) (human) (UniProt P05106)", "assay": "co-IP; co-IP of ITGB3 and ITCH in HCC cells with SERPINA1 overexpression (Fig. 5d)"}, "GST-SERPINA1 (human)": {"biological_target": "GST-SERPINA1 (human) (UniProt P01009)", "assay": "pull-down; GST pull-down on glutathione resin; GST-SERPINA1 and FLAG-ITGB3 purified from E. coli; GST NC as control; Western blot; both purified"}}, "note": "Results are given in words; binding and its absence hold for the method and conditions named. For some assays here: In cells and extracts the contact can be indirect. Some entries that bind do so weakly or less than the wild type.", "data": [{"substance": "wild-type SERPINA1 (tagged plasmid construct) (from UniProt P01009 25-418)", "values": [{"measurement": "binding", "setting": "[1]", "value": "binds"}]}, {"substance": "SERPINA1, overexpressed (Lv-OE-SERPINA1) (from UniProt P01009 25-418)", "values": [{"measurement": "binding", "setting": "[2]", "value": "binds"}]}, {"substance": "SERPINA1 Δ320–392 (from UniProt P01009 25-418)", "values": [{"measurement": "binding", "setting": "[1]", "value": "no binding"}]}, {"substance": "FLAG-ITGB3 (recombinant ITGB3) (from UniProt P05106 27-788) (receptor)", "values": [{"measurement": "binding", "setting": "GST-SERPINA1 (human)", "value": "binds"}]}, {"substance": "SERPINA1 Δ60–120 (from UniProt P01009 25-418)", "values": [{"measurement": "binding", "setting": "[1]", "value": "binds"}]}]}
